# Assay results published in PubChem BioAssay AID463173 (ICCB-Longwood Screening Facility, Harvard Medical School, 2010).
# The campaign covered roughly 52,000 compounds. About 4,300 (8.3%) were called active. Cut-off read from the data, not from the text of the source: active = survival mostly below about 52% (no sharp cut-off); inactive = mostly above about 56%. This is one part of the list.
# Test system: DeltatarO mutant
# Test: S. aureus survival, RN4220 and DeltatarO strains – OD600, teichoic acid synthesis inhibitors, primary screen (AID 463173)
# Details: S. aureus RN4220 wild type/DeltatarO growth, OD600, 18 h, hits give low values, screened at 18.75 µg/mL (by protocol)
row,SMILES,survival
1,COc1ccc(OC)c(NC(=O)CCN2CCN(Cc3cccc4ccccc34)CC2)c1,inactive: 89%
2,Cc1cc(C)cc(Nc2ncnc3c2nc2n3CCCC2)c1,inactive: 70%
3,COc1ccc(N2CC(NC(=O)COc3ccccc3F)CC2=O)cc1OC (stereo not given),inactive: 91%
4,COC(=O)c1ccc(C=Nc2ccc(O)c(-c3nc4ccccc4o3)c2)cc1,inactive: 93%
5,CCOc1ccc(NC(=O)CSc2oc(-c3ccco3)nc2S(=O)(=O)c2ccc(C)cc2)cc1,inactive: 74%
6,CC(C)OC(=O)CSc1nc2cc3c(cc2cc1C#N)OCO3,inactive: 80%
7,CC(C)CCNC(=O)CN1C(=O)CCn2nc(-c3cn(C)c4ccccc34)cc21,inactive: 94%
8,Cc1ccc(C2NC(=O)c3n[nH]c(-c4cccs4)c32)cc1 (stereo not given),inactive: 79%
9,Cc1ccc(S(=O)(=O)N2CCN(S(=O)(=O)c3ccc(C)cc3)CC2)cc1,inactive: 96%
10,Cc1ccc(Cl)cc1N1CCN(C(=O)Cn2nc(C)c3sc4ccccc4c3c2=O)CC1,inactive: 57%
11,COc1ccc(NC(=O)CCS(=O)(=O)c2nc(-c3ccc4c(c3)OCO4)cc(C(F)(F)F)n2)cc1OC,inactive: 79%
12,CCC(C)NC(=O)CCSc1nc(-c2ccc3c(c2)OCO3)cc(C(F)(F)F)n1 (stereo not given),inactive: 120%
13,O=C(Nc1cccc(C(=O)OCc2cc(=O)n3c4c(sc3n2)CCCC4)c1)c1cccc(F)c1,inactive: 98%
14,CCOC(=O)c1ccc(N2C(=O)c3[nH]nc(-c4ccc(OC)cc4)c3C2c2cccc(O)c2)cc1 (stereo not given),inactive: 57%
15,COc1ccccc1CNC(=O)CCn1c(=O)c2ccccc2n(CC(=O)Nc2cc(Cl)ccc2C)c1=O,inactive: 77%
16,COc1ccccc1NC(=O)Cn1nnc(C(=O)NCc2cccs2)c1N,inactive: 81%
17,O=c1cc(COc2ccccc2Cl)nc2scc(-c3ccccc3)n12,inactive: 81%
18,O=C(Nc1ccccc1Cl)N1CCC2(CC1)Oc1ccccc1C(=O)N2Cc1ccc(F)cc1,inactive: 64%
19,C=CCc1c(C)nc2ccccc2c1Cl,inactive: 87%
20,CCc1ccc(NC(=O)c2cnc3c(-c4ccccc4)c(C)nn3c2C)cc1,inactive: 94%
21,CC(=O)c1ccc(NC(=O)c2ccc(-c3nc(CSc4ccc(C)cc4)c(C)o3)cc2)cc1,inactive: 84%
22,COc1cc2c(cc1OC)C(CC(=O)Nc1ccccc1)C(=O)NN=C2C (stereo not given),inactive: 103%
23,COc1cccc(Cn2c(C)c(CNCc3cccc(C)c3)c(C(=O)O)c2C)c1,inactive: 115%
24,Cc1ccc(NC(=O)CSc2nc3ccc(NC(=O)c4ccco4)cc3s2)cc1,inactive: 72%
25,O=S(=O)(NCc1ccccc1)c1ccc(S(=O)(=O)N2CCCCCC2)cc1,inactive: 75%
26,COc1ccc(C2CC(=O)c3cc(-c4nc(-c5cccc([N+](=O)[O-])c5)cs4)c(=O)n(-c4cccc(C)c4)c3C2)cc1 (stereo not given),inactive: 59%
27,COC(=O)c1c(NC(=O)Cc2coc3cc(C)cc(C)c23)sc2c1CCC2,inactive: 75%
28,COc1cc(C(=O)NCc2ccc3c(c2)CCN3C(=O)c2ccc(Cl)cc2)cc(OC)c1OC,inactive: 97%

row,SMILES,survival
1,Cc1ccc(NC(=O)CSc2nc(=O)n(Cc3ccccn3)c3c2CCC3)cc1F,inactive: 80%
2,COCCNC(=O)c1c(NC(=O)c2cc(=O)c3cc(C)cc(C)c3o2)sc2c1CCCC2,inactive: 72%
3,CCN(CC)c1ccc(-c2nc(NC(C)=O)c3c(=O)oc4ccccc4c3n2)cc1,inactive: 98%
4,COc1ccc(CCNC(=O)c2ccc(Cn3c(=O)c4cccn4c4cccnc43)cc2)cc1OC,active: 48%
5,Cc1[nH]c(=O)[nH]c(=O)c1Cc1cccc2ccccc12,inactive: 73%
6,Cc1cc(C)n2nc(CNS(=O)(=O)c3cccc(Cl)c3)nc2n1,inactive: 121%
7,Cc1cc(C(=O)N2CCN(c3ccccc3F)CC2)c2c(C)nn(-c3ccccc3)c2n1,inactive: 130%
8,COc1ccc(NC(=O)N(CCN(C)C)Cc2cc3cc(OC)ccc3[nH]c2=O)cc1,inactive: 104%
9,Cc1cc(C)c2oc(-c3cccc(NC(=O)c4cccc(F)c4)c3C)nc2c1,inactive: 72%
10,CCCCN(C)C(=O)CSc1c2c(nc3ccc(Cl)cc13)CCCC2,active: -2%
11,CCC(C)NC(=O)c1ccc(CNS(=O)(=O)c2ccc3c(c2)C(C)(C)C(=O)N3C)cc1 (stereo not given),inactive: 75%
12,O=C(CSc1nc2ccccc2nc1Cc1ccccc1)N1CCc2ccccc21,inactive: 76%
13,CCN(C(=O)c1ccco1)c1nc(CC(=O)Nc2ccc(Cl)cc2)cs1,inactive: 90%
14,CCc1ccccc1NC(=O)Cn1c(=O)n(CCc2ccccc2)c(=O)c2sc3ccccc3c21,inactive: 71%
15,N#C/C(=C\c1ccc(N2CCOCC2)o1)C(=O)NCC1CCCO1 (stereo not given),inactive: 88%
16,COc1ccc(-c2c3c(nc4sc(C(=O)Nc5cccc(OC)c5)c(N)c24)CC(C)(C)CC3=O)cc1,inactive: 60%
17,COc1ccc(N(C)C(=O)Cn2cnc3sc(C)c(S(=O)(=O)N4CCN(c5ncccn5)CC4)c3c2=O)cc1,inactive: 80%
18,Cc1ccc(-c2nc3cccc(C)n3c2Nc2ccc3c(c2)OCCO3)cc1,inactive: 85%
19,O=C(NCCS(=O)(=O)N1CCN(c2cccc(Cl)c2)CC1)C(c1ccccc1)c1ccccc1,inactive: 72%
20,CCOCCCn1c(=N)c(C(=O)NC2CCCCC2)cc2c(=O)n3ccccc3nc21,inactive: 67%
21,CCc1nn(CC(=O)NCc2ccccc2)c(=O)c2cccn12,inactive: 69%
22,Cc1ccc(Cl)cc1NC(=O)CN1C=NS(=O)(=O)c2ccccc21,inactive: 73%
23,Cc1cccc(Cn2c(=O)n(-c3cc(C)cc(C)c3)c(=O)c3oc4ccccc4c32)c1,inactive: 71%
24,CCc1nn(CCCC(=O)NCc2ccccc2OC)c(=O)c2cc3occc3n12,inactive: 84%
25,Cc1cc(C)c2c(n1)nn1c(C)c(CCC(=O)Nc3cccc(C)c3C)c(C)nc21,inactive: 88%
26,O=c1c2ccccc2nc(SCc2ccccc2)n1Cc1ccco1,inactive: 63%
27,Cc1ccc(Cl)cc1N1CCN(C(=O)C2CCN(S(=O)(=O)c3cn(C)cn3)CC2)CC1,inactive: 98%
